The campaign covered roughly 39,000 compounds. About 220 (0.56%) showed activity. Some of the results follow.

The text below walks through data of the supplement of paper PMC9446081.
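Also: static incubation at 37 °C against the wild-type strain, values averaged over two biological replicates.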

In this assay the test system is Escherichia coli K-12 BW25113. The experiment in a line: relative growth (OD600 normalised to plate interquartile mean) (fraction); higher = less growth inhibition, active = 0.2 or less. The conditions noted are these: 50 µM; LB; incubation time: overnight (16-24 h).
Consider `C[C@H](CO)N1C[C@H](C)[C@H](CN(C)Cc2ccc(C(=O)O)cc2)OCCCC[C@H](C)Oc2ccc(NS(=O)(=O)c3ccccc3)cc2C1=O`, for which the relative growth is inactive: 0.982.

Turning to `CC(C)NC(=O)N(C)C[C@H]1Oc2c(NC(=O)C3CCCCC3)cccc2C(=O)N([C@@H](C)CO)C[C@H]1C`, the relative growth is inactive: 0.983.

Consider `O=C(C[C@@H]1CC[C@@H](NC(=O)Cc2ccccn2)[C@H](CO)O1)NCCCN1CCOCC1`, for which the relative growth is inactive: 0.998.

Regarding `COc1ccccc1-c1ccc2c(c1)O[C@@H](CN(C)S(=O)(=O)c1ccccc1)[C@H](C)CN([C@@H](C)CO)S2(=O)=O`, the relative growth is inactive: 1.02.

With `NC(N)=Nc1nc(CSCCC(N)=NS(N)(=O)=O)cs1`, the relative growth was inactive: 1.

For `Cc1ccc(S[C@]2(C(=O)NCC(C)C)CC(=O)N(Cc3ccccc3C(F)(F)F)[C@@H]2c2ccc(CO)cc2I)cc1`, the relative growth is inactive: 1.01.

Take `C[C@H](CO)N1C[C@H](C)[C@@H](CN(C)Cc2ccccc2)OCCCC[C@H](C)Oc2ccc(NC(=O)c3ccccc3)cc2C1=O`: the relative growth is inactive: 0.991.

As for `O=C(CN1CCOCC1)N[C@H]1CC[C@@H](CCNS(=O)(=O)c2ccccc2F)O[C@H]1CO`, the relative growth is inactive: 0.931.

On to `C[C@@H]1CN([C@@H](C)CO)S(=O)(=O)c2ccc(C#CC3CCCC3)cc2O[C@@H]1CN(C)C(=O)Cc1ccncc1`, for which the relative growth is inactive: 0.911.

`CC(C)CC#Cc1ccc2c(c1)O[C@@H](CN(C)C(=O)c1ccccn1)[C@H](C)CN([C@@H](C)CO)S2(=O)=O`: the relative growth is inactive: 1.01.

Regarding `C=C1CC[C@@H]2C(C)(C)CCC[C@@]2(C)[C@@H]1CC/C(C)=C/C(=O)OC`, the relative growth is inactive: 1.01.

As for `C[C@H]1CN([C@@H](C)CO)C(=O)c2cc(NC(=O)CCC(F)(F)F)ccc2O[C@@H]1CN(C)S(C)(=O)=O`, the relative growth was inactive: 1.04.

As to `Cc1noc(C)c1NC(=O)N(C)C[C@@H]1Oc2ccc(NC(=O)Nc3ccc(C(F)(F)F)cc3)cc2C(=O)N([C@H](C)CO)C[C@@H]1C`, the relative growth is inactive: 1.01.

`C[C@@H]1CN([C@H](C)CO)C(=O)c2cc(NC(=O)NC3CCCCC3)ccc2O[C@@H](C)CCCCO[C@H]1CN(C)C(=O)Nc1ccc(F)cc1`: the relative growth was inactive: 1.01.

`Cc1noc(C)c1NC(=O)N(C)C[C@H]1Oc2ccc(NS(=O)(=O)c3cn(C)cn3)cc2C(=O)N([C@H](C)CO)C[C@H]1C`: the relative growth is inactive: 0.989.

On to `C[C@@H]1CCCCO[C@@H](CN(C)CC2CCCCC2)[C@@H](C)CN([C@H](C)CO)C(=O)c2cc(NS(=O)(=O)c3ccc(Cl)cc3)ccc2O1`, for which the relative growth was inactive: 0.971.

With `C[C@H]1CN([C@@H](C)CO)C(=O)c2cc(Br)cnc2O[C@@H]1CN(C)S(=O)(=O)c1cn(C)cn1`, the relative growth was inactive: 0.842.

Regarding `C[C@@H]1CN([C@H](C)CO)C(=O)c2cc(NC(=O)Nc3ccc4c(c3)OCO4)ccc2O[C@@H](C)CCCCO[C@@H]1CN(C)C(=O)C1CCCCC1`, the relative growth was inactive: 1.02.

`CCC(=O)N1C[C@]2(CN(C2)C(=O)CN2CCOCC2)c2c([nH]c3cc(ccc23)OC)[C@H]1CO`: the relative growth is inactive: 1.01.

For the compound `CCC(=C(CC)c1ccc(O)cc1)c1ccc(O)cc1`, the relative growth was inactive: 0.666.

In the case of `C[C@@H]1CCCCO[C@H](CN(C)C(=O)Cc2ccccc2)[C@@H](C)CN([C@H](C)CO)C(=O)c2cc(NC(=O)c3ccccc3)ccc2O1`, the relative growth was inactive: 0.977.

Turning to `C[C@H](CO)N1C[C@H](C)[C@@H](CN(C)S(=O)(=O)c2cccs2)Oc2c(NC(=O)c3cnccn3)cccc2C1=O`, the relative growth was inactive: 0.991.

Turning to `CC(C)NC(=O)N(C)C[C@H]1Oc2ccc(NC(=O)Cn3cnnn3)cc2CC(=O)N([C@H](C)CO)C[C@H]1C`, the relative growth was inactive: 0.99.

As to `C[C@H]1C[C@@](N)(C(=O)O)C1`, the relative growth was inactive: 0.981.

Take `C[C@@H]1CCCCO[C@H](CN(C)Cc2ccccc2)[C@H](C)CN([C@@H](C)CO)C(=O)c2cc(NC(=O)Nc3ccc(C(F)(F)F)cc3)ccc2O1`: the relative growth is inactive: 0.959.

As for `O=C(C[C@@H]1CC=CC[C@H](NC(=O)OCC2c3ccccc3-c3ccccc32)C(=O)OC[C@H](Cc2ccccc2)NC1=O)N[C@@H](CO)Cc1ccccc1`, the relative growth is inactive: 0.988.

`C[C@@H]1CN([C@H](C)CO)S(=O)(=O)c2ccc(C#CCN(C)C)cc2O[C@H]1CN(C)Cc1ccc(F)cc1`: the relative growth was inactive: 0.95.

On to `C[C@@H]1CN([C@H](C)CO)C(=O)Cc2cc(NC(=O)CCN3CCOCC3)ccc2O[C@@H]1CN(C)S(=O)(=O)c1cn(C)cn1`, for which the relative growth was inactive: 1.01.

For `C[C@@H]1CN(CCO)C(=O)c2cc(NC(=O)Nc3ccccc3)ccc2O[C@@H](C)CCCCO[C@H]1CN(C)S(=O)(=O)c1ccc(F)cc1`, the relative growth was inactive: 1.02.

In the case of `Cc1noc(C)c1NC(=O)Nc1ccc2c(c1)C(=O)N([C@H](C)CO)C[C@@H](C)[C@@H](CN(C)C(=O)NC1CCCCC1)OCCCC[C@@H](C)O2`, the relative growth is inactive: 0.989.

Turning to `C[C@@H]1CCCCO[C@@H](CN(C)CC2CCCCC2)[C@H](C)CN([C@H](C)CO)C(=O)c2cc(NC(=O)CCCCCC(=O)Nc3ccccc3N)ccc2O1`, the relative growth is inactive: 0.993.

On to `CC[C@H](C)[C@H](N)C1=N[C@H](C(=O)N[C@@H](CC(C)C)C(=O)N[C@H](CCC(=O)O)C(=O)N[C@H](C(=O)N[C@H]2CCCCNC(=O)[C@H](CC(N)=O)NC(=O)[C@@H](CC(=O)O)NC(=O)[C@H](Cc3cnc[nH]3)NC(=O)[C@@H](Cc3ccccc3)NC(=O)[C@H]([C@@H](C)CC)NC(=O)[C@@H](CCCN)NC2=O)[C@@H](C)CC)CS1`, for which the relative growth is inactive: 0.909.

Turning to `NCC[S@@](=O)c1c(-c2ccc(F)cc2)[nH]c2ccccc12`, the relative growth is inactive: 1.02.

For the compound `O=C(C[C@@H]1CC[C@H]2NC[C@@H](O)COC[C@@H]2O1)NCCN1CCCCC1`, the relative growth is inactive: 1.01.

With `COc1ccc(NC(=O)Nc2ccc3c(c2)[C@H]2C[C@H](CC(=O)N4CCN(C)CC4)O[C@@H](CO)[C@H]2O3)cc1`, the relative growth was inactive: 1.01.

`CC(N)C(O)c1cccc(O)c1.O=C(O)C(O)C(O)C(=O)O` (stereo not drawn): the relative growth was inactive: 0.957.

With `COc1ccc(CN(C)C[C@H]2OCCCC[C@H](C)Oc3ccc(NS(=O)(=O)c4ccc(Cl)cc4)cc3C(=O)N([C@H](C)CO)C[C@@H]2C)cc1`, the relative growth is inactive: 0.998.

Turning to `C[C@H](CO)N1C[C@H](C)[C@H](CN(C)C(=O)Nc2cccc(C(F)(F)F)c2)OCc2ccccc2-c2c(n(C)c3ccccc23)C1=O`, the relative growth was inactive: 1.03.

For the compound `C[C@@H]1CN([C@H](C)CO)C(=O)c2cc(NC(=O)c3ccccc3)ccc2O[C@@H](C)CCCCO[C@H]1CN(C)S(=O)(=O)c1cccs1`, the relative growth is inactive: 1.04.

With `Cn1cc(N2C[C@]3(CNCCOC3)OCC2=O)cn1`, the relative growth was inactive: 0.996.

For `C[C@H]1CN([C@@H](C)CO)S(=O)(=O)c2ccc(-c3ccc(C(=O)N(C)C)cc3)cc2O[C@@H]1CN(C)C(=O)Cc1ccccn1`, the relative growth is inactive: 0.968.

In the case of `O=C(NCc1ccc(F)cc1)[C@H]1[C@H](CO)[C@H]2Cn3c(cccc3=O)[C@@H]1N2C(=O)c1cnccn1`, the relative growth was inactive: 0.985.

As to `C[C@@H]1CCCCO[C@H](CN(C)Cc2ccc(C(=O)O)cc2)[C@@H](C)CN([C@H](C)CO)C(=O)c2cc(NC(=O)C3CCCCC3)ccc2O1`, the relative growth is inactive: 1.01.

On to `C[C@@H]1CN([C@@H](C)CO)C(=O)Cc2cc(NC(=O)c3ccncc3)ccc2O[C@H]1CN(C)Cc1ccc(C(=O)O)cc1`, for which the relative growth was inactive: 1.

Take `C[C@@H]1CN([C@@H](C)CO)C(=O)c2cc(NC(=O)C3CCCCC3)ccc2O[C@H]1CN(C)C(=O)Nc1ccc(C(F)(F)F)cc1`: the relative growth is inactive: 1.02.

Turning to `CCCn1c(=O)[nH]c(=O)c2[nH]cnc21`, the relative growth is inactive: 0.968.

With `C[C@H](CO)N1C[C@H](C)[C@H](CN(C)S(=O)(=O)c2cccs2)OCCCC[C@H](C)Oc2ccc(NC(=O)Nc3ccccc3)cc2C1=O`, the relative growth is inactive: 1.02.

As to `C[C@@H]1CCCCO[C@H](CN(C)C(=O)Cc2ccccc2)[C@H](C)CN([C@@H](C)CO)C(=O)c2cc(NC(=O)Nc3ccc(F)cc3)ccc2O1`, the relative growth is inactive: 0.993.

Consider `Cc1noc(C)c1S(=O)(=O)Nc1ccc2c(c1)C(=O)N([C@H](C)CO)C[C@@H](C)[C@@H](CN(C)S(=O)(=O)c1ccc(F)cc1)O2`, for which the relative growth was inactive: 1.02.

On to `C[C@@H]1CN([C@@H](C)CO)C(=O)c2cc(-c3cccnc3)cnc2O[C@@H]1CN(C)Cc1ccc(Oc2ccccc2)cc1`, for which the relative growth was inactive: 0.86.

Regarding `C[C@@H]1CN([C@@H](C)CO)C(=O)c2cccc(NC(=O)Nc3cccc4ccccc34)c2O[C@H]1CN(C)C(=O)Nc1ccccc1`, the relative growth was inactive: 0.792.

With `O=C(Nc1ccc2c(c1)[C@H]1C[C@@H](CC(=O)N3CCc4ccccc4C3)O[C@@H](CO)[C@H]1O2)C1CCOCC1`, the relative growth was inactive: 0.992.

Turning to `C[C@@H]1CN([C@H](C)CO)C(=O)c2cc(NC(=O)Nc3cccc4ccccc34)ccc2O[C@@H]1CN(C)Cc1ccc2c(c1)OCO2`, the relative growth is inactive: 0.993.

Turning to `C[C@@H]1CN([C@H](C)CO)C(=O)c2cccc(NC(=O)c3ccc(-c4nccs4)cc3)c2O[C@@H]1CN(C)Cc1ccc(Cl)c(Cl)c1`, the relative growth was inactive: 1.01.

For the compound `CC=C1C2C=C(C)CC1(N)c1ccc(=O)[nH]c1C2` (stereo not drawn), the relative growth was inactive: 0.949.

As for `Cc1noc(C)c1NC(=O)N(C)C[C@@H]1OCCCC[C@H](C)Oc2ccc(NC(=O)CCC(F)(F)F)cc2C(=O)N([C@H](C)CO)C[C@@H]1C`, the relative growth was inactive: 0.979.

`O=C(O)c1ccc(-c2ccccc2)cc1`: the relative growth is inactive: 0.922.

Turning to `C[C@@H]1CCCCO[C@H](CN(C)Cc2ccc(C(=O)O)cc2)[C@H](C)CN([C@H](C)CO)C(=O)c2cc(NC(=O)Cc3ccccc3)ccc2O1`, the relative growth is inactive: 1.
